Assay results reported in PubChem BioAssay AID463173 (ICCB-Longwood Screening Facility, Harvard Medical School, 2010).
Among all 52,000 compounds or so, about 1,700 (3.3%) were called active. Rule as the data show it: active = survival mostly below about 52% (no sharp cut-off); inactive = mostly above about 56%. The list shows a part of the results.

tested on: Wild type; experiment: S. aureus survival, RN4220 and DeltatarO strains – OD600, teichoic acid synthesis inhibitors, primary screen (AID 463173); conditions: S. aureus RN4220 wild type/DeltatarO growth, OD600, 18 h, active compounds read low, screened at 18.75 µg/mL (by protocol)

| SMILES | survival |
| --- | --- |
| O=C1CC(c2ccccc2)Sc2nc3ccccc3n21 (stereo unspecified) | inactive: 115% |
| Cc1ccccc1NC(=O)c1ccc2c(c1)c(C)c(C)n2Cc1ccccc1 | inactive: 74% |
| O=C(CN1N=C(c2ccc(Cl)cc2)CCC1=O)NCCc1ccc(Cl)cc1 | inactive: 87% |
| COCc1nc2ccccc2n1CCOc1cccc(C)c1 | inactive: 53% |
| COc1ccc(S(=O)(=O)N2CCCN(CC(=O)Nc3ccc(NC(C)=O)cc3)CC2)cc1 | inactive: 68% |
| CC(=O)c1cccc(NC(=O)c2oc3c(c2C)-c2nn(Cc4ccc(Cl)cc4)cc2CC3)c1 | inactive: 79% |
| COc1cccc(-c2cc(C(F)(F)F)n3ncc(C(=O)NN4CCN(C)CC4)c3n2)c1 | inactive: 104% |
| CCOc1ccccc1CN1CCN(S(=O)(=O)c2ccccc2)CC1 | inactive: 105% |
| CCOC(=O)c1c(-c2ccccc2)oc2ccc(NS(=O)(=O)c3cc(C)c(C)cc3C)cc12 | inactive: 81% |
| COc1ccccc1NC(=O)CSC1=Nc2ccccc2C2=NC(CC(=O)NCc3ccco3)C(=O)N12 (stereo unspecified) | inactive: 135% |
| COc1ccc(NC(=O)c2oc3ccc(S(=O)(=O)N4CCCCC4)cc3c2C)cc1 | inactive: 85% |
| CCOc1ccc(CNC(=O)C2Cc3ccccc3N2C(=O)CC)cc1OC (stereo unspecified) | inactive: 68% |
| CCCc1nn2c(=O)cc(COC(=O)c3ccccc3NC(=O)COc3ccccc3F)nc2s1 | inactive: 91% |
| Cc1cccc(CNC(=O)CCn2c(=O)c3cccn3c3ccc(F)cc32)c1 | inactive: 112% |
| Cc1ccc(NC(=O)CN2C(=O)CCc3cc(S(=O)(=O)N4CCOCC4)ccc32)cc1F | inactive: 60% |
| COc1ccc(OC)c(CNC(=O)c2ccc(Sc3ccc(C)cc3)c(N)c2)c1 | inactive: 87% |
| CCc1ccc(-n2nc(C)c3c(C)cc(=O)n(Cc4nc(-c5ccccc5)oc4C)c32)cc1 | inactive: 124% |
| CCCOC(=O)c1c(NC(=O)c2nc3ncccn3n2)sc(C(N)=O)c1C | inactive: 69% |
| Cc1nc2c(C(=O)NCCCN(CC(C)C)CC(C)C)cnn2c(C)c1Cc1c(F)cccc1Cl | inactive: 83% |
| Cc1cccc(NS(=O)(=O)c2c(C)nc3sccn3c2=O)c1C | inactive: 99% |
| O=C(NCc1ccccc1Cl)c1cc2c(s1)-c1ccc(Cl)cc1SC2 | inactive: 92% |
| CCSc1nc2c([nH]c3ccccc32)c(=O)n1CC | inactive: 86% |
| COc1cccc(CNCCNC(=O)c2nonc2N)c1 | inactive: 86% |

| SMILES | survival |
| --- | --- |
| CC(NC(=O)CSc1ncccn1)c1ccccc1 (stereo unspecified) | inactive: 100% |
| Cc1ccc(C(=O)CSc2nc(-c3ccccc3)nc3c2CCCC3)cc1 | inactive: 55% |
| CCOc1ccccc1NC(=O)N1CC(CC)Oc2ccccc21 (stereo unspecified) | inactive: 81% |
| CCOC(=O)CSc1nc(-c2ccc(C)cc2C)cc(-c2ccccc2)c1C#N | inactive: 63% |
| COC(=O)c1cc2sccc2n1CCC#N | inactive: 102% |
| Cc1cccc(CSc2ncc(Cl)c(C(=O)Nc3sc4c(c3C(N)=O)CCCC4)n2)c1 | inactive: 116% |
| CC(C)(C)C(=O)Nc1cccc(-c2cn3cccnc3n2)c1 | inactive: 70% |
| Cc1ccc(-c2nnc(N3CCOCC3)c3ccccc23)cc1S(=O)(=O)N1CCN(C)CC1 | inactive: 102% |
| CC(=O)N1CCc2c(sc(NC(=O)CSc3ccccc3)c2-c2nc3ccccc3s2)C1 | inactive: 120% |
| COc1cccc(-n2c(=O)c3c(C)c(C)sc3n(CC(=O)NCc3ccc(C)cc3)c2=O)c1 | inactive: 75% |
| O=C(N/N=C/c1ccccc1)Nc1ccccc1 | inactive: 102% |
| CCn1c(CCc2ccccc2)n[nH]c1=S | inactive: 114% |
| Cc1c(C(=O)NCc2cccc(Cl)c2)sc2ncnc(N(C)C3CCCCC3)c12 | inactive: 78% |
| CC(=O)NC1C(=O)N(C(C)C)c2ccccc21 (stereo unspecified) | inactive: 96% |
| O=C(Cn1c(=O)nc(-c2ccccc2)c2ccccc21)Nc1cccc(C(F)(F)F)c1 | inactive: 126% |
| Cc1ccc(Cc2c(C)nc3nc(SCC(=O)NC4CCC(C)CC4)nn3c2C)cc1 (stereo unspecified) | inactive: 129% |
| c1ccc(C2SCCN2c2ccccc2)cc1 (stereo unspecified) | inactive: 86% |
| CCOC(=O)c1ccc2c(c1)N(CC(=O)N(C)c1ccccc1)C(=O)c1ccccc1S2 | inactive: 110% |
| COc1ccc(-c2cn(-c3ccc(C)cc3)c(S(=O)(=O)CC(=O)Nc3ccc(F)cc3)n2)cc1 | inactive: 110% |
| COc1ccccc1NC(=O)c1cc(=O)c2ccc(C)c(C)c2o1 | inactive: 81% |
| CCOc1ccc(CCNC(=O)c2cc3c(=O)oc4ccc(C)cc4c3s2)cc1OCC | inactive: 89% |
| Cc1nn(CCC(=O)Nc2cc(F)ccc2F)c(=O)c2nn(-c3ccccc3)c(C)c12 | inactive: 80% |
| N#C/C(=C\C1CC=CCC1)c1nc2ccccc2[nH]1 (stereo unspecified) | inactive: 125% |

| SMILES | survival |
| --- | --- |
| N#C/C(=C\c1ccc(-c2ccc(C(=O)O)cc2)o1)C(=O)Nc1ccccc1C(=O)O | inactive: 70% |
| COc1cc(Nc2nc(SCC(=O)c3ccc(Br)cc3)nc3ccccc23)cc(OC)c1 | inactive: 81% |
| O=C(CC1N=C2c3ccccc3N=C(SCc3cccc(Cl)c3)N2C1=O)NCc1ccc2c(c1)OCO2 (stereo unspecified) | inactive: 86% |
| CC1CCCCN1C(=O)CSc1n[nH]c(-c2ccccc2Cl)n1 (stereo unspecified) | inactive: 72% |
| COc1cccc(C2=C(C(C)=O)Sc3nnc(C4CCCCC4)n3N2C(C)=O)c1 | inactive: 71% |
| COc1cccc(CNC(=O)CSc2n[nH]c(-c3ccccc3Cl)n2)c1OC | inactive: 133% |
| CN1CCN(C(=O)CCCC(=O)O)CC1 | inactive: 114% |
| CCOc1ccccc1CNC(=O)c1cn(-c2ccc(OC)cc2)c(=O)c2ccccc12 | inactive: 111% |
| CCOc1ccc(NC(=O)[C@H]2O[C@@H]3OC(C)(C)O[C@@H]3[C@H]3OC(C)(C)O[C@H]32)cc1 | inactive: 90% |
| CCOC(=O)c1c(NC=O)sc2c1CCCC2 | inactive: 113% |
| Cc1cccc(NC(=O)CSc2nc(=O)n(Cc3ccco3)c3c2CCC3)c1C | inactive: 71% |
| CCc1nn(CC(=O)NCc2ccccc2Cl)c(=O)c2cc3ccccc3n12 | inactive: 80% |
| O=c1c(N2CCN(c3cccc(Cl)c3)CC2)csc2ccccc12 | inactive: 86% |
| Cc1cc(C)cc(NC(=O)C(=O)NCCCN2CCOCC2)c1 | inactive: 76% |
| Cc1ccc2cc3cc(C(=O)N4CCN(c5ccccc5)CC4)oc3nc2c1 | inactive: 55% |
| O=C(Nc1nc2ccc(S(=O)(=O)N3CCCC3)cc2s1)c1ccc(F)cc1 | inactive: 65% |
| CC1CCCCN1CCCNC(=O)c1ccc2c(c1)sc1nc(-c3ccc(F)cc3)cn12 (stereo unspecified) | inactive: 26% |
| C/C(CC1CC(COCCC(C)C)OC1=O)=N\NC(N)=S (stereo unspecified) | inactive: 108% |
| CCc1ccc(Oc2c(C(F)(F)F)oc3c(CN4CCN(CC)CC4)c(O)ccc3c2=O)cc1 | inactive: 87% |
| CCOc1ccc(CN(C(=O)c2nc(SC)ncc2Cl)C2CCS(=O)(=O)C2)cc1 (stereo unspecified) | inactive: 87% |
| CC(C)CNCC1OCc2ccccc2CO1 | inactive: 98% |
| CCOC(=O)c1noc2ncnc(N3CCN(c4cccc(Cl)c4)CC3)c12 | inactive: 75% |
| CCOC(=O)N1CCc2c(sc3c2c(=O)n(-c2ccc(Cl)cc2)c(=O)n3Cc2cccc(OC)c2)C1 | inactive: 120% |

| SMILES | survival |
| --- | --- |
| COCCCNC(=O)c1ccc(Cn2c(=O)c3ccccc3n(CC(=O)Nc3ccc(C)cc3C)c2=O)cc1 | inactive: 100% |
| COc1ccc(-c2nc3nc(C)cc(N4CCN(c5cccc(C(F)(F)F)c5)CC4)n3n2)cc1 | inactive: 88% |
| Cc1cc(C)cc(NC(=O)Cn2nnc(C(=O)NCc3ccccc3Cl)c2N)c1 | inactive: 77% |
| COc1ccc(CCNC(=O)c2cc3c(s2)-c2c(C)cccc2OC3)c(OC)c1 | inactive: 103% |
| CCOc1ccc(C(=O)Nc2ccccc2C(=O)OCc2cc(=O)n3nc(C4CC4)sc3n2)cc1 | inactive: 78% |
| CC(C)c1cc(C(=O)NC(C)c2ccccc2)no1 (stereo unspecified) | inactive: 81% |
| Cc1ccc(-c2nc(S(=O)(=O)c3ccc(C)cc3)c(SCC(=O)Nc3ccc(F)cc3)o2)cc1 | inactive: 73% |
| CCN(Cc1ccccc1)C(=O)c1cc2c(=O)oc3ccc(C)cc3c2s1 | inactive: 83% |
| CCc1ccc(S(=O)(=O)c2nnn3c2nc(Nc2cc(OC)cc(OC)c2)c2cc(Cl)ccc23)cc1 | inactive: 95% |
| Cc1cccc(N2CC(c3nc4ccccc4n3CCC3CCCCC3)CC2=O)c1 (stereo unspecified) | inactive: 44% |
| Cc1cccc2c1-c1sc(C(=O)NCc3ccc(Cl)cc3)cc1CO2 | inactive: 95% |
| CCCCCSc1nnc2c(n1)OC(CC)Nc1ccc(Br)cc1-2 (stereo unspecified) | inactive: 61% |
| COCCn1c(C)cc(O)c(C(c2ccc(Cl)cc2)N2CCN(c3ccccc3)CC2)c1=O (stereo unspecified) | inactive: 65% |
| CN1C(C(=O)c2ccccc2)=C(NC(=O)c2ccccc2Br)c2ccccc2S1(=O)=O | inactive: 81% |
| COc1ccc(NC(=O)Nc2cccc(OCc3cc(=O)n4cccc(C)c4n3)c2)c(OC)c1 | inactive: 85% |
| CCn1c(=O)cc(SCC(=O)NCCc2cccc(C)c2)c2ccccc21 | inactive: 90% |
| O=S(=O)(c1ccc2[nH]c3c(c2c1)CCCC3)N1CCN(c2cccc(C(F)(F)F)c2)CC1 | inactive: 71% |
| Cc1nc2ccc(S(=O)(=O)NC(C(=O)N3CCN(c4ccc(Cl)cc4)CC3)C(C)C)cc2s1 (stereo unspecified) | inactive: 66% |
| CCc1ccc(NC(=O)Cc2csc(COc3cccc(C)c3)n2)cc1 | inactive: 97% |
| O=c1n(Cc2ccc(Cl)cc2)c2ccccc2c2nc(-c3ccccc3)nn12 | inactive: 51% |
| Cc1cc(C)cc(Nc2nc3ccccc3n3cnnc23)c1 | inactive: 87% |
| COc1cc(C2N=C(N)Nc3nc4ccccc4n32)ccc1OCC(=O)O (stereo unspecified) | inactive: 73% |
